# Out of some 360,000 compounds screened, about 25,000 (6.9%) were called active. Inconclusive results, whose numbers are uncertain, are shown with a selection of clear calls. Calls come from the whole dose curve; as a rule, active = well fitted inhibition curve with a large enough effect; inconclusive = small, poorly fitted or top-dose-only effect; inactive = flat fitted curve, though single readings scatter. Potencies of inconclusive entries are doubtful fits and often do not repeat.
# Target: Luciferin 4-monooxygenase (Photinus pyralis) (UniProt P08659)
# Assay: qHTS profiling assay for firefly luciferase inhibitor/activator using purifed enzyme and Km concentrations of substrates (counterscreen for miR-21 project); note: nearly all actives have a fitted effect of over 55% in size;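 for activity change, negative = inhibition: plate controls were vehicle for no effect and reference inhibitor for full effect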
# Settings: purified FLuc, luminescence inhibition; activity change, negative = inhibition: at 57.5 µM (top of the series)
# How it was run: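 Purified P. pyralis luciferase (10nM final) with 10uM D-luciferin and 10uM ATP (Km levels) in 50mM Tris acetate pH 7.5, 10mM Mg acetate, 0.01% Tween-20, 0.05% BSA; qHTS 6-point titration, ~60 µM downward; luminescence read.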
# Potency is the fitted concentration of half-maximal effect; tags give direction and shape of the fitted curve.
# Chain of UniProt P08659 (P08659 whole entry, looked up): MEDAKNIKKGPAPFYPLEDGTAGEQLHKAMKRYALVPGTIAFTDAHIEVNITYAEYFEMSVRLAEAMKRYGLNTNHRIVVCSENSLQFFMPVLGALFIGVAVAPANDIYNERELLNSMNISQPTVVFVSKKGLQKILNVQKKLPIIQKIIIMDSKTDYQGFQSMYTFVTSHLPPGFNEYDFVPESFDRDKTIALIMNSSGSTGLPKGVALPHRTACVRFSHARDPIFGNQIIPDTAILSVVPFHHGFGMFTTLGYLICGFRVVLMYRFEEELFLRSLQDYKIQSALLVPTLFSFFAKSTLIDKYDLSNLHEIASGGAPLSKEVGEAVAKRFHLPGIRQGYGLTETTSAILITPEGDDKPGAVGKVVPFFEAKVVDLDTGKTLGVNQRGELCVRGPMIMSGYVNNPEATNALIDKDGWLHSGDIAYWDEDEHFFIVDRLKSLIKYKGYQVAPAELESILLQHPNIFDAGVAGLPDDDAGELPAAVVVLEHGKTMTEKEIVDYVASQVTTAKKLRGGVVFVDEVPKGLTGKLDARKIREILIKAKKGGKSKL
SMILES,Potency,"activity change, negative = inhibition"
CC(C)N1CCc2c(sc(NC(=O)c3nc4ccccc4s3)c2C(N)=O)C1,active: 16.9 µM,–
N#CCCN(Cc1cccnc1)C(=S)NC(=O)C1CC1,–,inactive: 1.49%
CC(NC(=O)c1cc(COc2c(F)cccc2F)on1)c1cnn(-c2ccccc2)c1 (centres undefined),active: 16.9 µM,–
O=S(=O)(c1ccc2nc(COc3ccc(Cl)cc3Cl)[nH]c2c1)N1CCOCC1,"inconclusive: 23.9 µM [inhibitor, partial curve, poor fit]",–
O=C(O)CSc1cc(C(=O)c2ccccc2O)cn2c(=O)c3c4c(sc3nc12)CCCC4,active: 4.26 µM,–
N#Cc1cn(-c2ccccc2)nc1-c1ccc2c(c1)OCCO2,–,inactive: -12% [at 2.3 µM]
O=C(COC(=O)C1CCN(S(=O)(=O)c2ccc3c(c2)OCCO3)CC1)Nc1ccccc1OC(F)F,"inconclusive: 21.3 µM [inhibitor, single point]",–
Cc1c(N2C(=O)/C(=C\c3ccccc3O)SC2=S)c(=O)n(-c2ccccc2)n1C,"inconclusive: 37.9 µM [inhibitor, partial curve, poor fit]",–
O=C1C(C2=C(O)c3ccccc3C2=O)=Nc2ccccc21,active: 1.9 µM,–
Cc1cccc(-c2nc(SCC(=O)Nc3ccc4c(c3)OCO4)c(-c3ccccc3)[nH]2)c1,"inconclusive: 12 µM [inhibitor, partial curve, poor fit]",–
CCc1ccc(OCC(=O)N(Cc2ccc(OC)cc2)C2CCS(=O)(=O)C2)cc1 (centres undefined),–,inactive: 1.48%
Cc1nc(Nc2ccc3c(c2)OCO3)c2oc3ccccc3c2n1,active: 30.1 µM,–
CCN(CC)CCNC(=O)C1c2cc(OC)c(OC)cc2C(=O)N(C)C1c1cccs1 (centres undefined),–,inactive: -3.94%
Cc1ccc(Cl)cc1N1CCN(C(=O)Cc2c(C(=O)O)[nH]c3ccc(Cl)cc23)CC1,"inconclusive: 26.9 µM [inhibitor, single point]",–
COCC(=O)Oc1c(Sc2ccccc2[N+](=O)[O-])c(C)nn1C(C)(C)C,"inconclusive: 23.9 µM [inhibitor, partial curve, poor fit]",–
CC(C)(C)Nc1nc(NCc2cccnc2)nc(N2CCOCC2)n1,–,inactive: 1.52%
Cc1cc(C)cc(-n2ccnc2SCC(=O)Nc2nccs2)c1,–,inactive: 0.641%
Cc1cc(OC(C(=O)O)c2ccccc2)c2c(C)c(Cc3ccccc3)c(=O)oc2c1 (centres undefined),"inconclusive: 26.9 µM [inhibitor, single point]",–
Cc1ccc(NC(=O)CCOc2ccccc2C)cc1F,"inconclusive: 21.3 µM [inhibitor, partial curve, poor fit]",–
Cc1cccc(C(=O)Nc2ccccc2C(=O)NCc2ccco2)c1,"inconclusive: 37.9 µM [inhibitor, partial curve, poor fit]",–
CNC(=O)Nc1cccc(-c2cc(-c3c(Cl)cccc3Cl)no2)c1,"inconclusive: 37.9 µM [inhibitor, single point]",–
COc1ccc(C(=O)Nc2ccc(N3CCN(C)CC3)cc2)cc1OC,active: 16.9 µM,–
CCC(=C/c1sc2ccc3ccccc3c2[n+]1C)/C=C1\Sc2ccc3ccccc3c2N1C,"inconclusive: 10.7 µM [inhibitor, partial curve]",–

SMILES,Potency,"activity change, negative = inhibition"
CC(NC(=O)c1c(O)c2ccccc2n(C)c1=O)c1ccccc1 (centres undefined),"inconclusive: 23.9 µM [inhibitor, partial curve]",–
Clc1ccc(SCc2cc(-c3ccccc3)no2)cc1,"inconclusive: 19 µM [inhibitor, partial curve]",–
Cc1ccc2nc(SCC(=O)Nc3cccc(S(N)(=O)=O)c3)[nH]c2c1,"inconclusive: 26.9 µM [inhibitor, partial curve, poor fit]",–
COCCCNC(=O)CCc1c(C)nc2cc(-c3ccc(Cl)cc3)nn2c1C,"inconclusive: 19 µM [inhibitor, partial curve, poor fit]",–
CN(C)c1ccc([C@@H]2[C@@H]([N+](=O)[O-])[C@H]3C=Cc4ccccc4N3[C@H]2C(=O)c2ccc(Cl)cc2)cc1,"inconclusive: 26.9 µM [inhibitor, single point]",–
c1ccc(-n2ncc3c(NCCN4CCOCC4)ncnc32)cc1,"inconclusive: 23.9 µM [inhibitor, single point]",–
O=C(c1cccs1)N1CCCc2cc(NS(=O)(=O)c3ccc(F)cc3)ccc21,"inconclusive: 37.9 µM [inhibitor, partial curve, poor fit]",–
CC(C)Cn1c(/C=C/c2ccc(F)cc2)nc2ccccc21,active: 2.39 µM,–
CC(=O)Oc1cccc(-c2nc3ccccc3c(=O)o2)c1,active: 19 µM,–
COc1ccc(CCC(=O)Nc2cccc(S(=O)(=O)N(C)C)c2)cc1OC,–,inactive: -2.48%
Cc1ccc(C(=O)Nc2nc(-c3cc(Cl)sc3Cl)cs2)cc1,active: 9.53 µM,–
O=C(NCc1ccccc1)c1ccccc1-c1nc2ccccc2[nH]1,–,inactive: -3%
Cc1nn2c(-c3cccc(NC(=O)c4ccc(Cl)cc4)c3)nnc2c2ccccc12,–,inactive: -7.82%
Cc1cc(C)nc(NC(=O)c2cccs2)n1,–,inactive: -0.151%
O=P1(O)C=C(c2ccccc2)OC(c2ccccc2)=C1,"inconclusive: 26.9 µM [inhibitor, partial curve]",–
COc1ccc(NC(=O)CN(C)C(=O)c2ccc(N3CCCCCC3)c([N+](=O)[O-])c2)cc1,"inconclusive: 30.1 µM [inhibitor, partial curve, poor fit]",–
CCCCNc1cc(C(=O)O)cc(S(N)(=O)=O)c1Oc1ccccc1,"inconclusive: 12 µM [inhibitor, partial curve, poor fit]",–
NNC(=O)CN(CCc1ccccc1)S(=O)(=O)c1ccc(Cl)cc1,–,inactive: -0.598%
CCN(C(=O)CSc1ncn[nH]1)c1c(N)n(Cc2ccccc2)c(=O)[nH]c1=O,"inconclusive: 26.9 µM [inhibitor, single point]",–
Cc1ccc(NC(=O)CSc2nncs2)cc1Cl,"inconclusive: 16.9 µM [inhibitor, partial curve, poor fit]",–
Cc1cc(C)n(C(=O)c2cc3sccc3[nH]2)n1,"inconclusive: 21.3 µM [inhibitor, single point]",–
CCOc1cc(CNCc2ccccc2)ccc1OCc1ccc(Cl)cc1,–,inactive: 0.799%
N#Cc1cccc(-n2c(-c3ccccc3)nnc2-c2ccccc2)c1C#N,"inconclusive: 21.3 µM [inhibitor, partial curve, poor fit]",–

SMILES,Potency,"activity change, negative = inhibition"
Brc1c(CSc2nc3ccccc3s2)nc2ncccn12,active: 12 µM,–
Cc1ccc2oc(-c3cccc(NC(=O)Cn4cnc5c(=O)n(C)c(=O)n(C)c54)c3)nc2c1,active: 3.79 µM,–
O=C(COc1ccc(-c2ccccc2)cc1)NN=C1CCCC1,"inconclusive: 26.9 µM [inhibitor, single point]",–
COc1cc(Nc2ccccn2)cc(C(=O)Nc2cccc(C(F)(F)F)c2)c1,"inconclusive: 26.9 µM [inhibitor, single point]",–
CCOc1ccc2nc(SCC(=O)N3CCCc4ccccc43)sc2c1,"inconclusive: 23.9 µM [inhibitor, single point]",–
O=C(CSc1ccc2ccccc2c1)Nc1ccc(S(=O)(=O)Nc2nccs2)cc1,"inconclusive: 30.1 µM [inhibitor, partial curve, poor fit]",–
COC(=O)c1ccc(NC(=O)COC(=O)C2CCC2)cc1,"inconclusive: 21.3 µM [inhibitor, single point]",–
O=C(NNC(=S)NC(=O)c1sc2ccccc2c1Cl)c1ccc(Cl)cc1,"inconclusive: 23.9 µM [inhibitor, single point]",–
CC(=O)c1cnc2cc(-c3cccc(Br)c3)nn2c1C,"inconclusive: 6.75 µM [inhibitor, full curve]",–
Cc1ccc2nc(SCc3ccc([N+](=O)[O-])cc3)[nH]c2c1,"inconclusive: 30.1 µM [inhibitor, partial curve]",–
Nc1ccccc1SC1CC(=O)N(c2ccc(Cl)c(Cl)c2)C1=O (centres undefined),–,inactive: 1.9%
Cc1ccc(C(=O)Nc2nc(=O)n(C(=O)C3CC3)s2)cc1,active: 19 µM,–
O=C1OC2(CCCCC2)CC2=C1C1O[C@](c3ccsc3)(Cc3c1ccc1ccccc31)O2,"inconclusive: 3.89 µM [inhibitor, single point]",–
Cc1ccc(C2C3=C(Nc4[nH]n(-c5ccccc5)c(=O)c42)c2ccccc2C3=O)cc1 (centres undefined),"inconclusive: 33.8 µM [inhibitor, partial curve, poor fit]",–
COc1ccc(NC(=O)CSC2=Nc3ccccc3C3=NC(CC(=O)NCc4ccc(F)cc4)C(=O)N23)cc1 (centres undefined),–,inactive: -9.27%
Cc1ccc(NC(=O)C(=O)NCC2CCCO2)cc1C (centres undefined),"inconclusive: 12 µM [inhibitor, partial curve, poor fit]",–
COc1ccc(CC(=O)Nc2sc3c(c2C(=O)Nc2c(C)cccc2C)CCCCC3)cc1,–,inactive: 2.83%
Cc1ccc(NC(=O)C(=O)NCCCN2CCCC2=O)c(C)c1,"inconclusive: 21.3 µM [inhibitor, single point]",–
CSc1cccc(NC(N)=O)c1,–,inactive: -3.68%
O=C(COc1ccc(/C=N/NS(=O)(=O)c2ccccc2)cc1)Nc1ccccc1,"inconclusive: 33.8 µM [inhibitor, partial curve, poor fit]",–
COc1cccc(NC(=O)/C(C#N)=C\c2cn(Cc3ccc(Cl)cc3)c3ccccc23)c1,–,inactive: -1.57%
Cc1cccc(CSc2nc3ccncc3n2CC(=O)Nc2ccc(C)c(C)c2)c1,"inconclusive: 8.49 µM [inhibitor, partial curve]",–
O=C(Nc1nc(-c2ccccn2)cs1)c1cc(S(=O)(=O)N2CCOCC2)ccc1F,"inconclusive: 33.8 µM [inhibitor, partial curve, poor fit]",–

# Source: PubChem BioAssay AID588342 (National Center for Advancing Translational Sciences (NCATS), 2011)
